From PubChem BioAssay AID1745853 (National Center for Advancing Translational Sciences (NCATS), 2022)
Some of the results follow. Shown are side measurements of this screen, not its main read-out; they come without a call.

Tests used:
Test in all cases: Primary Screen for Target Class Profiling of Small Molecule Inhibitors of Methyltransferases
[1] = target: Glycine N-methyltransferase (Homo sapiens) (UniProt Q14749); details: purified enzyme, MTase-Glo SAH luminescence; measured here: GNMT inhibition; at 40 µM; stronger effect = lower value
Method in brief: (§1)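 Each enzyme was assayed with SAM and its substrate. SAH formation detected by MTase-Glo luminescence; single-point 40 uM screen[…].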

[2] = target: Guanidinoacetate N-methyltransferase (Homo sapiens) (UniProt Q14353); details: purified enzyme, MTase-Glo SAH luminescence; measured here: GAMT inhibition; at 40 µM; stronger effect = lower value
Method in brief: as §1

[3] = target: Histamine N-methyltransferase (Homo sapiens) (UniProt P50135); details: purified enzyme, MTase-Glo SAH luminescence; measured here: HNMT inhibition; at 40 µM; stronger effect = lower value
Method in brief: as §1

[4] = target: Nicotinamide N-methyltransferase (Homo sapiens) (UniProt P40261); details: purified enzyme, MTase-Glo SAH luminescence; measured here: NNMT inhibition; at 40 µM; stronger effect = lower value
Method in brief: as §1

[5] = target: Phenylethanolamine N-methyltransferase (Homo sapiens) (UniProt P11086); details: purified enzyme, MTase-Glo SAH luminescence; measured here: PNMT inhibition; at 40 µM; stronger effect = lower value
Method in brief: as §1
% is set by controls: 0 for no effect and ±100 for the full control effect.

| SMILES | activity change, negative = inhibition [1] | activity change, negative = inhibition [2] | activity change, negative = inhibition [3] | activity change, negative = inhibition [4] | activity change, negative = inhibition [5] |
| --- | --- | --- | --- | --- | --- |
| COc1cc(/C=C/C(=O)O)ccc1O[C@@H]1O[C@H](CO)[C@@H](O)[C@H](O)[C@H]1O[C@@H]1OC[C@](O)(CO)[C@H]1O | 8.32% | 6.48% | 10.2% | -7% | 2.42% |
| CC(C)NC(=O)c1ccc2c(=O)n(C(C)C)c3nn(CC(=O)c4ccc(Cl)cc4)c(=O)n3c2c1 | 4.54% | 1.34% | 9.19% | 4.17% | 8.06% |
| CCCn1c(=O)c2ccc(C(=O)NC3CCCCC3)cc2n2c(=O)n(Cc3ccc(Cl)cc3)nc12 | -0.146% | 1.71% | 2.25% | -2% | -2.26% |
| CC(=O)O[C@@H]1[C@H](O[C@@H]2OC[C@](O)(CO)[C@H]2O)[C@@H](O[C@@H]2O[C@@H](C)[C@H](O)[C@@H](O[C@@H]3O[C@H](CO)[C@@H](O)[C@H](O)[C@H]3O)[C@H]2O)[C@H](OC(=O)[C@]23CCC(C)(C)C[C@H]2C2=CCC4[C@@]5(C)C[C@H](O)[C@H](O[C@@H]6O[C@H](C(=O)O)[C@@H](O)[C@H](O)[C@H]6O)[C@@](C)(C(=O)O)C5CC[C@@]4(C)[C@]2(C)CC3)O[C@@H]1C (some centres not stated) | 0.058% | 14.3% | 10.1% | 2.1% | 11.6% |
| O=C(Nc1cccc(F)c1)[C@@H]1C[C@@H](c2cccc(C(F)(F)F)c2)N(CC2CCOCC2)C1 | -1.64% | -6.7% | 0.919% | -11.1% | 2.61% |
| CC(=O)N1CCn2c(nnc2C2CCCN2Cc2ccc(F)cc2F)C1 (configuration not stated) | 0.487% | 5.46% | 2.21% | -2.98% | 15.9% |
| Cc1nn(C)c(C)c1S(=O)(=O)N1CCC2(CCC(=O)N(Cc3ccccc3)CC2)CC1 | -5.76% | -2.92% | -0.623% | -4.83% | -1.67% |
| COc1ccc(CN2C(=O)c3cc(C(C)(C)C)nn3CC2(C)C(=O)NC2CCCCC2)cc1 (configuration not stated) | -9.82% | -1.93% | -4.77% | -11.4% | -4.17% |
| COCc1cc(CNC(=O)CC(c2ccccc2)c2ccccc2Cl)[nH]n1 (configuration not stated) | -0.385% | -6.56% | -0.165% | -1.32% | -0.437% |
| CCn1ncnc1C(C)NC1CCC2(CCNCC2)CC1 (configuration not stated) | -5.51% | -5.37% | -3.9% | -9.01% | -4.52% |
| Cc1cn2nc(C(=O)NC3CCCCCC3)cc2c(N2CCSCC2)n1 | -4.98% | -2.39% | -7.67% | -10.5% | -14.7% |
| COc1cccc(Cn2nc3n(C)c(=O)c4ccc(C(=O)NC5CCCC5)cc4n3c2=O)c1 | -6.04% | -8.37% | 2.44% | -11.5% | -4.7% |
| O=S(=O)(NCCC1=CCCCC1)c1cccc(-c2nc(-c3ccccc3)no2)c1 | -5.95% | -0.082% | -9.71% | -12.1% | -8.98% |
| O=C1NCCCCCN(C(=O)C2CCCCC2)[C@H]2CCCC[C@@H]12 | 0.943% | 5.77% | 2.58% | -1.26% | 13.3% |
| CC1CCC(NC(=O)C2(C)Cn3c(cc4sccc43)C(=O)N2Cc2cccc(Cl)c2)CC1 (configuration not stated) | 1.1% | 0% | -0.097% | -3.16% | -2.29% |
| O=C1NCCOCCN(C(=O)Cc2cccc(F)c2)[C@H]2CCC[C@@H]12 | -0.636% | -3.1% | 2.81% | -4.44% | 9.66% |
| C[C@]12C=CC(=O)C=C1CC[C@@H]1C2=CC[C@]2(C)[C@@H](C(=O)CN3CCN(c4cc(N5CCCC5)nc(N5CCCC5)n4)CC3)CC[C@@H]12 | -14.7% | 10% | -0.288% | -6.43% | 2.6% |

| SMILES | activity change, negative = inhibition [1] | activity change, negative = inhibition [2] | activity change, negative = inhibition [3] | activity change, negative = inhibition [4] | activity change, negative = inhibition [5] |
| --- | --- | --- | --- | --- | --- |
| CCCCNc1ccc(-c2ccc(CN3CCOCC3)cn2)c(NC2CCC(O)CC2)c1 (configuration not stated) | 2.73% | 5.11% | -4.22% | -10.8% | 1.73% |
| Cc1cnc(-c2ccccc2)n1C1CCCN(S(=O)(=O)c2ccccc2)C1 (configuration not stated) | -28.8% | -2.02% | -9.15% | -10.8% | -4.54% |
| COC1C(=O)CCC2(CO2)C1(O)C1(C)OC1CC=C(C)C (configuration not stated) | -11.3% | -4.95% | -12.4% | -14.7% | -10.7% |
| COc1ccc2cc3n(c2c1)CC(C)(C(=O)NCC1CCCO1)N(Cc1ccc(C)cc1)C3=O (configuration not stated) | 1.77% | 6.1% | -1.69% | 7.6% | -0.883% |
| C/C=C/C1OC2=C(C(=O)OC2(C)O)C(O)C1O (configuration not stated) | 0% | -0.89% | 8.56% | -10% | -0.794% |
| COc1ccc(-c2nnc3n(CCCOC(C)C)c(=O)c4ccccc4n23)c(O)c1 | -8.72% | 4.68% | -1.3% | 4.56% | -4.69% |
| Cc1cnccc1CN(C)Cc1cc2n(n1)CCNC2 | -1.94% | -0.239% | -1.48% | -2.02% | 2.37% |
| CCCCN1C(=O)c2cc(C(=O)Nc3cccc(Cl)c3C)nn2CC1(C)C(=O)NC1CCCC1 (configuration not stated) | 2.19% | 4.24% | -4.16% | -2.74% | 0.076% |
| c1ccc2c(Oc3nc(Nc4ccc(N5CCOCC5)cc4)c4ncn(C5CCCCC5)c4n3)cccc2c1 | -2.8% | -18% | -66.5% | -59.5% | -8.02% |
| CC(C)NC(=O)c1ccc2c(=O)n(C(C)C)c3nn(Cc4ccccc4F)c(=O)n3c2c1 | 0.869% | 0.765% | 7.34% | -0.184% | 3.59% |
| C=CCNC(=O)N[C@H]1C[C@@H](C(=O)N[C@@H](CCS(C)(=O)=O)C(N)=O)N(C(=O)CSC)C1 | -4.24% | -9.63% | -3.92% | -13.8% | -8.94% |
| CNC(=O)c1ccc2c(c1)CCO[C@H]2CCN1CCN(c2ccc(C(N)=O)cc2)CC1 | -5.52% | -9.48% | 3.32% | -25.4% | -1.16% |
| COCCN1C[C@@H]2[C@H](c3ccccc31)[C@@H](CO)[C@@H](c1ccccc1)N2C(=O)COC(C)=O | -16.7% | -12.8% | -27.9% | -17.2% | -13.2% |
| CC1(C)[C@@H](O[C@H]2O[C@H](C(=O)O)[C@@H](O)[C@H](O)[C@H]2O[C@@H]2O[C@H](C(=O)O)[C@@H](O)[C@H](O)[C@H]2O)CC[C@]2(C)[C@H]3C(=O)C=C4[C@@H]5C[C@@](C)(C(=O)O)CC[C@]5(C)CC[C@@]4(C)[C@]3(C)CC[C@@H]12 | -5.99% |  | 2.98% |  |  |
| Cc1cccc(NC(=O)CSc2nnc3n(C)c(=O)c4ccc(C(=O)NC5CCCC5)cc4n23)c1 | -5.2% | -0.71% | -2.66% | -2.89% | 0.69% |
| CN1CC2(CCN(C(=O)CCc3nc(-c4ccco4)no3)C2)OC1=O (configuration not stated) | -5.77% | -10.1% | -2.71% | -17.8% | -11.6% |
| CC(C)Cn1c(=O)c2ccc(C(=O)NC(C)C)cc2n2c(=O)n(CC(=O)Nc3ccccc3F)nc12 | 0.324% | 2.13% | 7.45% | -5.27% | 0.436% |
